Test results published in paper PMC4336329 (PLoS ONE, 2015).
About 2,200 (0.71%) of roughly 310,000 compounds showed an effect of 50% or more. Effects have a minus sign here. The list shows a part of the results.

These compounds were tested against human ether-à-go-go-related gene (hERG) potassium channel (human, UniProt Q12809) (assay: primary screen, population patch clamp on CHO cells stably expressing hERG).
Chain of human ether-à-go-go-related gene (hERG) potassium channel (Q12809 whole entry, looked up): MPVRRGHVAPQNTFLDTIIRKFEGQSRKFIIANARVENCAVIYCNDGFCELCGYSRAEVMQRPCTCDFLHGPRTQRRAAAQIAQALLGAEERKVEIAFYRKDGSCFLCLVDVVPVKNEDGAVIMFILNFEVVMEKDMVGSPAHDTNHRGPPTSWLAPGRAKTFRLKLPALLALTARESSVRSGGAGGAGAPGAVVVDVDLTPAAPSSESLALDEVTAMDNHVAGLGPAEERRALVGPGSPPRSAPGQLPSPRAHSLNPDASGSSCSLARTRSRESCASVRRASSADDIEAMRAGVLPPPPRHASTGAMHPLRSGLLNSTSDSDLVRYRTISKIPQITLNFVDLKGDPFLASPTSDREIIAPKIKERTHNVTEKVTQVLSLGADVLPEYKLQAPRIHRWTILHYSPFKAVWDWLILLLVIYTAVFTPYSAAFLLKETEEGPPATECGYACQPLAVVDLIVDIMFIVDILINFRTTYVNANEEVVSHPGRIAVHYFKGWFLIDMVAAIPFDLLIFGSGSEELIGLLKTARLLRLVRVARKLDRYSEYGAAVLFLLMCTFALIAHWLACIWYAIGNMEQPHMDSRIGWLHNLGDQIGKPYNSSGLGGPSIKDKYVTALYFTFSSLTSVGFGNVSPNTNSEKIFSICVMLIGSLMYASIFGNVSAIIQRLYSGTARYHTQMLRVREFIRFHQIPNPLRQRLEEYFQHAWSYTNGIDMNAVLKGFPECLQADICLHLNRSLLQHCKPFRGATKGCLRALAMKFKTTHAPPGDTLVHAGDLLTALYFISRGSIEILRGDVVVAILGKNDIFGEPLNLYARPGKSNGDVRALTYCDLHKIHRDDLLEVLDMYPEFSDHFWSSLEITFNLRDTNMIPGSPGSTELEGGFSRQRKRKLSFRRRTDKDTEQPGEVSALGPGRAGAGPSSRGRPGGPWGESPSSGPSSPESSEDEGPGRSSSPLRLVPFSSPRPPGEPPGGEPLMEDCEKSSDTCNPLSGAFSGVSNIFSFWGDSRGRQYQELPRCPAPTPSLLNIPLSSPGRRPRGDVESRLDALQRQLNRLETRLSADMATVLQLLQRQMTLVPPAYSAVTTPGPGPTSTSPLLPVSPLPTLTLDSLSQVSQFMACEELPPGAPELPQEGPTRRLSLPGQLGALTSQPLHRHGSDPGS

Row | SMILES | hERG current change (%, negative = inhibition) at 1uM
1 | COc1cc(N2C(=O)NC3CC2(C)Oc2ccccc23)cc(OC)c1OC (centres unmarked) | 16.8%
2 | CCN(Cc1ccccc1)S(=O)(=O)c1nc2nc(C)c(C)c(C)n2n1 | 6.07%
3 | O=C(CSc1nnc(COc2ccc(Cl)cc2)o1)N1CCN(c2ccccc2)CC1 | 3.48%
4 | CC(C)(C)CC(=O)Nc1nnc(SCC(=O)NC2CCCC2)s1 | 2.17%
5 | CC(=O)Nc1nc(COc2ccc3ccccc3c2)cs1 | 19.3%
6 | Cc1nc(SCC(=O)Nc2cc(C(N)=O)cc(C(N)=O)c2)c2c(C)c(C)sc2n1 | 12%
7 | C/C(CCc1ccccc1)=N\NC(=O)C1C2CCCCC21 (centres unmarked) | 12.9%
8 | C/C(N)=C(/C#N)C(=O)COC(=O)C1=NN(c2ccccc2)C(=O)CC1 | 18.3%
9 | COc1cc(NS(=O)(=O)c2ccc(NC(=S)NC(=O)c3ccco3)cc2)ncn1 | 18.5%
10 | O=C(CCC(=O)Nc1ccc(F)cc1)N/N=C/c1cccs1 | 7.12%
11 | O=C/C(=C\Nc1ccccn1)c1nc2ccccc2o1 | -7.25%
12 | CN(Cc1ccc2ccccc2c1)C(=O)c1ccc(C(F)(F)F)cc1 | 17.9%
13 | COC(=O)CON1C(=O)c2ccccc2C1=O | 4.67%
14 | CCn1c(C)cc2c(c1=O)C(c1ccc3c(c1)OCO3)C(C#N)=C(N)O2 (centres unmarked) | -2.94%
15 | Clc1ccc2nc(-c3cccc(SC4CCCCC4)c3)c(NCc3ccccc3)n2c1.O=C(O)C(F)(F)F | 5.58%
16 | O=C(NCCc1nc2ccccc2[nH]1)c1ccc(F)cc1 | -14.9%
17 | O=C(Nc1ccc(-n2nncc2-c2ccco2)cc1)c1ccc(F)cc1 | -1.99%
18 | CCOC(=O)[C@H](CCc1ccccc1)N[C@H]1CCc2ccccc2N(CC(=O)O)C1=O.Cl | 16.1%
19 | Cc1[nH]c(C)c(S(=O)(=O)NCc2ccccc2Cl)c1C(=O)N1CCCC1 | 9.42%
20 | Cc1cc(NC(=O)c2ccc(C#N)cc2)n(-c2ccccc2)n1 | 8.2%
21 | CC(C)C(=O)NNC(=O)c1csc(CS(=O)(=O)c2ccc(Cl)cc2)n1 | 4.21%
22 | CCCCn1c(=O)[nH]c2nc3cc(NC(C)=O)ccc3nc2c1=O | 18.1%
23 | COc1cccc(C(=S)N2CCOCC2)c1OS(=O)(=O)c1ccc(Cl)cc1 | 8.5%

Row | SMILES | hERG current change (%, negative = inhibition) at 1uM
24 | O=C(Nc1ccc(Cl)cc1)C1=Cc2cc(Cl)ccc2OC1 | 3.76%
25 | CCOC(=O)C1=NN(C(=O)Nc2ccc(OC)cc2)C2C(=O)N(c3cccc(C(F)(F)F)c3)C(=O)C12 (centres unmarked) | 0.488%
26 | Cc1ccc(S(=O)(=O)N2CCC(C(=O)NCCCN3CCCCCC3)CC2)cc1 | -0.0269%
27 | CCC(C(=O)c1ccc(O)cc1)c1ccccc1 (centres unmarked) | 7.46%
28 | [Br-].c1ccc(Nc2scc(-c3ccccc3)[n+]2Cc2ccco2)cc1 | 8.15%
29 | COC(=O)CSc1ncc(OC)c(OC)n1 | 4.54%
30 | COc1ccc(C2=NN(C(=O)CCCC(=O)O)C(c3cn(-c4ccccc4)nc3-c3ccccc3)C2)cc1 (centres unmarked) | -3.5%
31 | Nc1ccc(Br)cc1Br | 12.3%
32 | Fc1cnc(N2CCOCC2)nc1NCc1ccccc1 | 16.1%
33 | CCCCCCCn1c(=O)c(C(=O)Nc2cnccn2)c(O)c2ccccc21 | 12.5%
34 | CCn1c(CSCc2c(Cl)cccc2Cl)n[nH]c1=S | 20.4%
35 | C[n+]1ccc(C(=O)Nc2ccccc2Cl)cc1.[I-] | 22.5%
36 | CC(=O)n1nc(-c2cccc(C)c2)nc1SCC(=O)Nc1ccccc1 | -4.13%
37 | COc1ccc(NC(=O)c2cnc(C)cn2)cc1-n1cnnn1 | 13.3%
38 | CC(=O)Nc1cccc(NC(=O)C(=O)NCC(c2ccco2)N2CCc3ccccc32)c1 (centres unmarked) | 3.12%
39 | CCC1/C(=N\O)CC(c2ccco2)NC1c1ccco1 (centres unmarked) | 11.6%
40 | Cc1ccc(N(CC(O)CN2CCCCC2)S(=O)(=O)c2ccc(C)cc2)cc1 (centres unmarked) | 12.8%
41 | CS(=O)(=O)N1CCC(Oc2ccccc2C(=O)NCCCc2cccnc2)CC1 | 13.7%
42 | CC(=O)Oc1ccc(/C=C(\NC(=O)c2cccc(Br)c2)C(=O)Nc2ccc(C(=O)O)cc2)cc1 | 1.11%
43 | S=C(NCc1ccccc1)NCc1ccc(Cl)cc1 | 13.7%
44 | CCSc1cc(N2CCCC2)nc(-c2ccc(Cl)cc2)n1 | 19.1%
45 | COc1ccc(/C=N/NC(=O)c2ccc3c(c2)OCCO3)cc1[N+](=O)[O-] | -3.9%
46 | CN(C)c1nc(N)nc(CSc2ccccn2)n1 | 14.8%

Row | SMILES | hERG current change (%, negative = inhibition) at 1uM
47 | Cc1ccc(OCc2nnc(SCC(=O)Nc3cccc4ccccc34)n2-c2ccccc2)cc1 | 18%
48 | CC(=O)c1ccc(Oc2cc(C)nc(NCc3ccccc3)n2)cc1 | -0.431%
49 | C=C(C)C1Cc2c(C)nn(-c3ccccn3)c2C1 (centres unmarked) | 14%
50 | O=[N+]([O-])c1ccccc1S(=O)(=O)Nc1cccc2cccnc12 | 2.85%
51 | CC(C)[C@H](NC(=O)N1CCn2c1nc1ccccc12)C(=O)NCc1ccc(F)cc1 | 7.56%
52 | Cc1cc2c(cc1S(=O)(=O)Nc1cccc(F)c1)n(C)c(=O)c(=O)n2C | -2.35%
53 | Nc1ccc(-c2nc3cc(N)ccc3o2)cc1 | 10.5%
54 | Cc1ccc(C(=O)N(C)CCOc2ccccc2)cc1S(=O)(=O)N1CCCCC1 | -1.43%
55 | CC(C)CNc1nc(Oc2ccc(=O)n(-c3ccccc3)n2)nc(N2CCOCC2)n1 | 8.69%
56 | O=C(CNC(=O)c1ccccc1)N/N=C/c1cn[nH]c1-c1ccccc1 | 13.1%
57 | COC(=O)c1c[nH]c(=O)c2ccccc12 | 22.6%
58 | CC(=O)N1CCN(c2ccc(NC(=O)c3ccc([N+](=O)[O-])cc3)cc2)CC1 | 8.21%
59 | CCOc1ccc(-c2c[n+](=O)c3c(n2[O-])CCCC3)c(OCC)c1 | 2.6%
60 | O=C(CSc1ncn[nH]1)NCc1ccccc1Cl | 13.5%
61 | CCS(=O)(=O)N1CCC(C(=O)O)CC1 | 16.8%
62 | O=C(O)c1ccccc1Nc1cccc(OCc2ccc3ccccc3n2)c1 | 16.5%
63 | CC(C)COP(=O)(OCC(C)C)C(O)c1ccc2c(c1)OCO2 (centres unmarked) | 11.2%
64 | CC1Sc2ccc(S(=O)(=O)N3CCN(c4ccccc4)CC3)cc2NC1=O (centres unmarked) | 6.41%
65 | COc1ccc(CN2CCC(=O)N([C@H](CO)Cc3ccccc3)CC2)cc1 | 1.95%
66 | COCCOc1cc(N(CC(=O)N(C)C)S(=O)(=O)c2ccccc2)c(Cl)cc1Cl | 10.8%
67 | Cc1ccc(/C=N/N2CCN(Cc3ccccc3)CC2)cc1 | 11%
68 | CCOc1ccc(S(=O)(=O)N2CCC(C(=O)NCc3ccco3)CC2)cc1 | -14.5%
69 | COC(=O)C(Nc1ccccc1Cl)(c1cc(C)c(O)c(C)c1)C(F)(F)F (centres unmarked) | 4.38%

Row | SMILES | hERG current change (%, negative = inhibition) at 1uM
70 | CC(C)c1nnc(NC(=O)CCC(=O)Nc2ccc(Cl)cc2)s1 | 19.5%
71 | COc1ccc(-c2c(NC(=O)c3ccco3)n(-c3ccc(C)cc3)nc(C)c2=O)cc1 | 18.6%
72 | CC(C)Cn1c(N)c(/C=N/NC(=O)c2ccc(Cl)cc2)c(=O)n(C)c1=O | 18.2%
73 | CCOCCc1nnc(NC(=O)c2cc(OC)c(OC)cc2[N+](=O)[O-])s1 | 6%
74 | Cc1ccc(NC(=O)CN(C)C(=O)C(c2ccccc2)c2ccccc2)cc1 | 7.27%
75 | CCCOP(=O)(c1ccc(N(C)C)cc1)C(O)c1ccc(N(C)C)cc1 (centres unmarked) | 14.6%
76 | c1ccc(CCNCCOc2ccccc2)cc1 | 8.5%
77 | CC(/C=N/n1c(-c2ccncc2)n[nH]c1=S)=C\c1ccco1 | 20.7%
78 | CCOC(=O)c1c(C)sc(Sc2ccc(Cl)cc2[N+](=O)[O-])c1OC | 10.2%
79 | CCCC(CCC(=O)NC1CCCCC1)C(=O)O (centres unmarked) | 10.7%
80 | N#Cc1c(SCC(=O)Nc2ccc(C(F)(F)F)cc2)sc2c(O)cc(=O)[nH]c12 | 14.8%
81 | CC(C)(C)c1ccc(C(CC(=O)O)NC(=O)C23CC4CC(CC(C4)C2)C3)cc1 (centres unmarked) | 14.5%
82 | Cc1nn(C)c(C)c1S(=O)(=O)N1CCCC(C(=O)NC2CCCCC2)C1 (centres unmarked) | 7.91%
83 | CS(=O)(=O)Nc1nnc(CCc2ccccc2)s1 | 16.8%
84 | CC1C(=O)CC(c2ccccc2)NC1c1ccccc1 (centres unmarked) | 3.38%
85 | CC(C)N(C)NC(=S)Nc1ccccc1 | 8.22%
86 | O=C(C1=C[C@@H](c2ccc3c(c2)OCO3)C[C@@H](OCc2ccc(CO)cc2)O1)N1CCOCC1 | 7.02%
87 | Cc1c(Cl)cccc1NC(=O)CCCCCN1C(=O)CCC1=O | 12.8%
88 | O=C(O)COc1ccccc1/C=N/NC(=O)CN1CCN(S(=O)(=O)c2ccc(Br)cc2)CC1 | 8.52%
89 | COc1cccc(NC(=O)COC(=O)C2CCN(S(=O)(=O)c3cccs3)CC2)c1 | 12.8%
